Test results as given in PubChem BioAssay AID1458 (National Center for Advancing Translational Sciences (NCATS), 2008).
Screen size: about 210,000 compounds; about 5,900 (2.8%) were called active. The inconclusive results got no clear call from the source; some entries with a clear call stand among them for comparison. Calls come from the whole dose curve; as a rule, active = well fitted activation curve with a large enough effect; inconclusive = small, poorly fitted or top-dose-only effect; inactive = no such curve, though single readings can be large or run the other way. Potencies beside an inconclusive call are fits to weak or partial responses and may not hold up.

Experiment: qHTS Assay for Enhancers of SMN2 Splice Variant Expression; note: nearly all actives have a fitted effect of over 55% in size; for activity change, positive = activation: % of control where 0% means no effect
Settings: HEK293 SMN2-luciferase splicing reporter, luminescence, 30-36 h; activity change, positive = activation: at 46.1 µM (top of the series)
Summary of the method: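 HEK293 cells carry an SMN2 minigene-luciferase reporter in which exon 7 inclusion puts luciferase in frame. Cells were seeded at 2000 cells/well, attached for 10-12 hours, then exposed to compounds for 30-36 hours at 37C before ONE-Glo luminescence.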
Potency is the fitted concentration of half-maximal effect; tags give direction and shape of the fitted curve.

Row | Compound | activity change, positive = activation | Potency
1 | Cc1ccc(N)c([N+](=O)[O-])c1 | inactive: 5.63% | –
2 | O=C(Nc1ccc2c(c1)CCC2)c1ccccc1 | – | active: 2 µM
3 | CCOCCOCC | inactive: 10.6% | –
4 | COc1cc(N2CN=c3s/c(=C\c4ccccn4)c(=O)n3C2)cc(OC)c1OC | – | inconclusive: 4.47 µM [activator, full curve, poor fit]
5 | COc1ccc(-n2ncc(Cl)c(Cl)c2=O)cc1 | inactive: -83.5% | –
6 | COc1ccc(-c2cc(C(F)(F)F)nc(SCC(=O)N3CCCCC3)n2)cc1 | inactive: 8.3% | –
7 | CCCCNC(=O)c1cc(-c2ccc(F)cc2)on1 | – | active: 25.1 µM
8 | COc1c(C)cc(S(=O)(=O)N2CCOCC2)c(C)c1C | inactive: 0.815% | –
9 | CCCCC[C@H](O)/C=C/[C@@H]1[C@H]2C/C(=C/CCCC(=O)O)O[C@H]2C[C@H]1O | – | inactive
10 | N/C(=N\OC(=O)COc1cc(Cl)c(Cl)cc1Cl)c1ccccn1 | – | active: 11.2 µM
11 | Cc1cs/c(=N\N=C\c2ccc(O)cc2)n1Cc1ccco1 | – | inconclusive: 2 µM [activator, partial curve]
12 | Cc1cccc2nc(CSc3nnc4ccccn34)cn12 | – | inconclusive: 15.8 µM [activator, single point]
13 | COc1cccc(CNC(=S)Nc2cc(C)cc(C)c2)c1 | – | inconclusive: 14.1 µM [activator, partial curve]
14 | Cc1c(Cl)cc(C(C)(C)C)c(O)c1Cc1c(C)c(Cl)cc(C(C)(C)C)c1O | inactive: -47.6% [at 9.22 µM] | –
15 | Cc1cc(C(=O)Nc2sc3c(c2C#N)CCCCC3)cs1 | – | active: 11.2 µM
16 | Cc1cc(C)cc(-n2c(C)cc(/C=N/NC(=O)CN(c3c(C)cccc3C)S(C)(=O)=O)c2C)c1 | inactive: 17.4% | –
17 | CCn1nnc(NC(=O)c2ccc(-c3ccccc3[N+](=O)[O-])o2)n1 | – | inconclusive: 15.8 µM [activator, single point]
18 | CCOC(=O)C1CCN(C(=O)Cn2cc(C#N)c3ccccc32)CC1 | – | inconclusive: 3.98 µM [activator, single point]
19 | COc1ccc(CNC(=S)Nc2ccc(-c3ccccc3)cc2)cc1 | inactive: -9.29% | –
20 | CC(=O)/C(N)=N/Nc1cccc(Cl)c1 | – | inconclusive: 0.355 µM [activator, full curve, poor fit]
21 | Cc1ccc2nc(NC(=O)CCn3cccc3)sc2c1 | – | inconclusive: 11.2 µM [activator, partial curve]
22 | O=C(O)c1cc(Cl)cc(Cc2cc(Cl)cc(C(=O)O)c2O)c1O | inactive: -7.19% [at 9.22 µM] | –
23 | CCNC(=O)COC(=O)/C=C/c1cccc(F)c1 | inactive: 12.4% | –
24 | Cc1nn(Cc2c(F)c(F)c(F)c(F)c2F)c(C)c1NC(=O)c1cccc(COc2ccc(Cl)cc2)c1 | – | active: 17.8 µM
25 | COc1ccc(/C=C/C(=O)NC2=NCCS2)cc1OC | – | inconclusive: 31.6 µM [activator, single point]

Row | Compound | activity change, positive = activation | Potency
26 | CN(C)c1ccc(NC(=S)NC(=O)/C=C/c2ccc(Cl)cc2)cc1 | inactive: 43.6% | –
27 | O=C(CCCn1c(=O)[nH]c2ccccc2c1=O)N1CCN(c2ccccn2)CC1 | – | inconclusive: 7.94 µM [activator, partial curve]
28 | O=c1c(Sc2ccccc2)c(C(F)(F)F)[nH]n1-c1ccccc1 | inactive: 0.188% | –
29 | Cc1ccccc1C(=O)OCc1nnc(-c2ccc(Cl)cc2)o1 | inactive: 10.7% | –
30 | CCOC(=O)Nc1ccc2nc3n(c(=O)c2c1)CCCCC3 | – | inconclusive: 14.1 µM [activator, partial curve]
31 | CN1/C(=C\C(=O)COC(=O)CNC(=O)c2ccc3ccccc3c2)C(C)(C)c2ccccc21 | inactive: -20.4% | –
32 | O=C1CC(c2cccs2)CC2=C1C(c1ccccc1)n1ncnc1N2 (stereo not given) | – | inconclusive: 0.005 µM [activator, full curve]
33 | COc1ccccc1OCc1ccc(C(=O)N(C)C)o1 | – | inconclusive: 2 µM [activator, full curve, poor fit]
34 | COc1ccccc1NC(=O)Cc1cccs1 | – | inconclusive: 0.0045 µM [activator, full curve]
35 | O=C(NCCOc1ccccc1)c1cc2ccccc2o1 | – | active: 10 µM
36 | Cc1nc2c(C)cccc2cc1C(=O)N/N=C/c1ccc(N(C)C)cc1 | – | inconclusive: 11.2 µM [activator, partial curve]
37 | COc1ccc(C2=NC3(CCCCCC3)N(CC(=O)Nc3cccc(Cl)c3)C2=O)cc1 | inactive: 0.43% | –
38 | Cc1cc(C)nc(SCc2cc(=O)c(OC(=O)c3cccc([N+](=O)[O-])c3)co2)n1 | – | inconclusive: 14.1 µM [activator, partial curve, poor fit]
39 | COc1ccc2oc(C(=O)C3CC3)c(N)c2c1 | – | inconclusive: 7.94 µM [activator, partial curve, poor fit]
40 | CS(=O)(=O)N1CCN(c2ccccc2NC(=O)c2ccc(-c3ccc(Br)cc3)o2)CC1 | inactive: -13.4% | –
41 | Cc1ccc2oc(=O)c3cnn(CC(=O)NCCc4ccsc4)c3c2c1 | inactive: -9.74% | –
42 | Cc1c(Cl)cccc1N1C(=O)C(N2C(=O)c3cccc([N+](=O)[O-])c3C2=O)C1c1cccs1 (stereo not given) | – | inconclusive: 1.41 µM [activator, full curve]
43 | COc1cccc(NC(=O)c2csc3c2CCCC3)c1 | – | active: 14.1 µM
44 | CCC(C)n1c(-c2cc(OC)c(OC)c(OC)c2)nc2nc3ccccc3nc21 (stereo not given) | – | inconclusive: 0.316 µM [activator, full curve, poor fit]
45 | Cc1ccc(C(C(=O)NC2CCCCC2)N2CCN(C(=O)c3ccco3)CC2)cc1 (stereo not given) | – | inconclusive: 0.1 µM [activator, full curve, poor fit]
46 | Cc1ccc(CC(=O)N2CCN(c3ccccn3)CC2)cc1 | – | inconclusive: 15.8 µM [activator, single point]
47 | COc1ccc(N2CC(NC(=O)NCC(C)C)CC2=O)cc1 (stereo not given) | – | inconclusive: 12.6 µM [activator, single point]
48 | Cc1cccc(NC(=O)C2CCCN(S(=O)(=O)c3c(C)n[nH]c3C)C2)c1 (stereo not given) | inactive: -22.4% | –
49 | CN(C)c1cccc(C(=O)NCc2ccc(Cl)cc2)c1 | inactive: -22.8% | –
50 | CCCCCn1c(N)c(-c2nc3ccccc3o2)c2c([N+](=O)[O-])nn(C)c(=O)c21 | – | inconclusive: 0.178 µM [activator, full curve, poor fit]
